What is called IC50 is the concentration at which inhibition is half-maximal.

By IC50 is meant the dose at which the fit gives 50% viability; fits outside the tested doses are given as limits. For AUC the same curve is integrated over the 256-fold range of doses and scaled to a fraction; the more sensitive the line, the further below 1. An inferred top dose is not printed in the source and was worked back from the curve model. Bounds are passed on as bounds.

Among the data in the supplement of paper PMC4967469 are AUC and IC50 values, retold here.

Compound in this assay: CCn1cc(-c2ccnc3[nH]c(-c4cccc(CN(C)C)c4)cc23)c(-c2ccc(NC(=O)N(C)C)cc2)n1 [GSK1070916]
The assay is described as follows: Viability of human cancer cell lines after 72 h of drug (GDSC screen). Conditions: top dose inferred. The method, then: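 Human cancer cell lines in 384-well plates, medium with 10% serum, drug for 72 h over a 256-fold dose range (nine 2-fold or five 4-fold steps up to the top dose). Adherent lines were fixed and stained with the nucleic acid dye Syto60, suspension lines read with resazurin; signal relative to control wells, capped at 0 and 100%. One two-parameter sigmoid per drug and line, fitted in a mixed model over all curves with the slope shared within a line.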
For “NCI-H2228 (lung adenocarcinoma, adherent, top dose 2.56 µM)”, the AUC was found to be 0.911 and the IC50 is over 2.56 µM.
With “NCI-H2291 (lung adenocarcinoma, adherent, top dose 2.56 µM)”, the AUC worked out at 0.979 and the IC50 was over 2.56 µM.
For “NCI-H2342 (lung adenocarcinoma, adherent, top dose 2.56 µM)”, the AUC turned out to be 0.983 and the IC50 is over 2.56 µM.
The like results for “NCI-H2347 (lung adenocarcinoma, adherent, top dose 2.56 µM)” were, in that order, 0.918 and over 2.56 µM.
Turning to “NCI-H2405 (lung adenocarcinoma, adherent, top dose 2.56 µM)”, the AUC is 0.951 and the IC50 was over 2.56 µM.
As for “NCI-H2444 (non-small cell lung carcinoma, adherent, top dose 2.56 µM)”, the AUC is 0.986 and the IC50 is over 2.56 µM.
The like results for “NCI-H2452 (mesothelioma, adherent, top dose 2.56 µM)” were, in that order, 0.984 and over 2.56 µM.
Regarding “NCI-H3122 (lung adenocarcinoma, adherent, top dose 2.56 µM)”, the AUC is 0.926 and the IC50 is over 2.56 µM.
Take “NCI-SNU-1 (stomach, suspension, top dose 2.56 µM)”: the AUC was found to be 0.916 and the IC50 was over 2.56 µM.
On the same counts, the results for “NCI-SNU-5 (stomach, suspension, top dose 2.56 µM)” are 0.989 and over 2.56 µM.
As to “NCI-SNU-16 (stomach, suspension, top dose 2.56 µM)”, the AUC was determined as 0.925 and the IC50 is over 2.56 µM.
On the same counts, the results for “NEC8 (testis, adherent, top dose 2.56 µM)” are 0.955 and over 2.56 µM.
Consider “NH-12 (neuroblastoma, adherent, top dose 2.56 µM)”, for which the AUC amounted to 0.622 and the IC50 amounted to 0.363 µM.
The like results for “NK-92MI (lymphoid neoplasm, suspension, top dose 2.56 µM)” were, in that order, 0.914 and over 2.56 µM.
The like results for “NKM-1 (acute myeloid leukaemia, suspension, top dose 2.56 µM)” were, in that order, 0.184 and 0.0174 µM.
On the same counts, the results for “NMC-G1 (glioma, adherent, top dose 2.56 µM)” are 0.837 and 2.3 µM.
Consider “NOMO-1 (acute myeloid leukaemia, suspension, top dose 2.56 µM)”, for which the AUC was 0.473 and the IC50 came to 0.134 µM.
On the same counts, the results for “NOS-1 (osteosarcoma, adherent, top dose 2.56 µM)” are 0.735 and 0.886 µM.
For “NTERA-2 cl.D1 (testis, adherent, top dose 2.56 µM)”, the AUC was 0.97 and the IC50 was over 2.56 µM.
The like results for “NU-DUL-1 (B-cell lymphoma, suspension, top dose 2.56 µM)” were, in that order, 0.573 and 0.244 µM.
“NUGC-3 (stomach, adherent, top dose 2.56 µM)”: the AUC was 0.969 and the IC50 is over 2.56 µM.
For “NUGC-4 (stomach, adherent, top dose 2.56 µM)”, the AUC stood at 0.982 and the IC50 is over 2.56 µM.
The like results for “NY (osteosarcoma, adherent, top dose 2.56 µM)” were, in that order, 0.989 and over 2.56 µM.
The like results for “OACM5-1 (oesophagus, semi-adherent, top dose 2.56 µM)” were, in that order, 0.675 and 0.525 µM.
In the case of “OACp4C (oesophagus, adherent, top dose 2.56 µM)”, the AUC came to 0.458 and the IC50 was determined as 0.12 µM.
The like results for “OAW-28 (ovary, adherent, top dose 2.56 µM)” were, in that order, 0.862 and over 2.56 µM.
The like results for “OAW-42 (ovary, adherent, top dose 2.56 µM)” were, in that order, 0.928 and over 2.56 µM.
The like results for “OC-314 (ovary, adherent, top dose 2.56 µM)” were, in that order, 0.936 and over 2.56 µM.
As to “OCI-AML3 (acute myeloid leukaemia, suspension, top dose 2.56 µM)”, the AUC is 0.812 and the concentration for half-maximal inhibition (IC50) came to 1.13 µM.
Take “OCI-AML5 (acute myeloid leukaemia, suspension, top dose 2.56 µM)”: the AUC is 0.153 and the IC50 was 0.0156 µM.
The like results for “OCI-LY-19 (B-cell lymphoma, suspension, top dose 2.56 µM)” were, in that order, 0.039 and under 0.01 µM.
The like results for “OCI-M1 (acute myeloid leukaemia, suspension, top dose 2.56 µM)” were, in that order, 0.868 and 1.46 µM.
The like results for “OCUB-M (breast, adherent, top dose 2.56 µM)” were, in that order, 0.342 and 0.0624 µM.
With “OCUM-1 (stomach, adherent, top dose 2.56 µM)”, the AUC was found to be 0.987 and the IC50 is over 2.56 µM.
The like results for “OE19 (oesophagus, adherent, top dose 2.56 µM)” were, in that order, 0.986 and over 2.56 µM.
The like results for “OE21 (oesophagus, adherent, top dose 2.56 µM)” were, in that order, 0.976 and over 2.56 µM.
As for “OE33 (oesophagus, adherent, top dose 2.56 µM)”, the AUC was determined as 0.983 and the IC50 was over 2.56 µM.
On the same counts, the results for “OMC-1 (cervix, adherent, top dose 2.56 µM)” are 0.961 and over 2.56 µM.
For the cell line “ONS-76 (medulloblastoma, adherent, top dose 2.56 µM)”, the AUC stood at 0.804 and the IC50 worked out at 1.4 µM.
Take “OPM-2 (myeloma, suspension, top dose 2.56 µM)”: the AUC is 0.746 and the IC50 stood at 0.688 µM.
The like results for “OS-RC-2 (kidney, adherent, top dose 2.56 µM)” were, in that order, 0.926 and over 2.56 µM.
On the same counts, the results for “OSC-19 (head and neck, adherent, top dose 2.56 µM)” are 0.947 and over 2.56 µM.
“OSC-20 (head and neck, adherent, top dose 2.56 µM)”: the AUC was found to be 0.867 and the IC50 is over 2.56 µM.
Turning to “OV-7 (ovary, adherent, top dose 2.56 µM)”, the AUC stood at 0.842 and the half-maximal inhibitory concentration (IC50) is over 2.56 µM.
The like results for “OV-17R (ovary, adherent, top dose 2.56 µM)” were, in that order, 0.938 and over 2.56 µM.
Regarding “OV-56 (ovary, adherent, top dose 2.56 µM)”, the AUC amounted to 0.988 and the IC50 was over 2.56 µM.
On the same counts, the results for “OV-90 (ovary, adherent, top dose 2.56 µM)” are 0.974 and over 2.56 µM.
Take “OVCA420 (ovary, adherent, top dose 2.56 µM)”: the AUC amounted to 0.98 and the IC50 was over 2.56 µM.
On the same counts, the results for “OVCA433 (ovary, adherent, top dose 2.56 µM)” are 0.958 and over 2.56 µM.
The like results for “OVCAR-3 (ovary, adherent, top dose 2.56 µM)” were, in that order, 0.986 and over 2.56 µM.
Consider “OVCAR-4 (ovary, adherent, top dose 2.56 µM)”, for which the AUC was 0.919 and the IC50 was over 2.56 µM.
On the same counts, the results for “OVCAR-5 (ovary, adherent, top dose 2.56 µM)” are 0.969 and over 2.56 µM.
As to “OVCAR-8 (ovary, adherent, top dose 2.56 µM)”, the AUC is 0.96 and the IC50 is over 2.56 µM.
“OVISE (ovary, adherent, top dose 2.56 µM)”: the AUC was found to be 0.888 and the IC50 is over 2.56 µM.
The like results for “OVK-18 (ovary, adherent, top dose 2.56 µM)” were, in that order, 0.985 and over 2.56 µM.
On the same counts, the results for “OVKATE (ovary, adherent, top dose 2.56 µM)” are 0.928 and over 2.56 µM.
As to “OVMIU (ovary, adherent, top dose 2.56 µM)”, the AUC amounted to 0.931 and the IC50 was over 2.56 µM.
Consider “OVTOKO (ovary, adherent, top dose 2.56 µM)”, for which the AUC amounted to 0.933 and the IC50 is over 2.56 µM.
On to “P12-ICHIKAWA (T-cell lymphoblastic leukaemia, suspension, top dose 2.56 µM)”, for which the AUC worked out at 0.014 and the IC50 is under 0.01 µM.
“P30-OHK (lymphoblastic leukaemia, suspension, top dose 2.56 µM)”: the AUC stood at 0.019 and the IC50 is under 0.01 µM.
The like results for “P31-FUJ (acute myeloid leukaemia, suspension, top dose 2.56 µM)” were, in that order, 0.984 and over 2.56 µM.
On to “P32-ISH (Burkitt lymphoma, suspension, top dose 2.56 µM)”, for which the AUC came out at 0.199 and the IC50 was 0.0283 µM.
Turning to “PA-1 (ovary, adherent, top dose 2.56 µM)”, the AUC was 0.744 and the IC50 is 0.659 µM.
As for “PA-TU-8902 (pancreas, adherent, top dose 2.56 µM)”, the AUC was 0.969 and the IC50 was over 2.56 µM.
As to “PA-TU-8988T (pancreas, adherent, top dose 2.56 µM)”, the AUC came out at 0.982 and the IC50 was over 2.56 µM.
Take “PANC-02-03 (pancreas, adherent, top dose 2.56 µM)”: the AUC was 0.958 and the IC50 was over 2.56 µM.
